In all, about 150,000 compounds went through this assay and about 540 (0.36%) showed an effect of 50% or more. Some of the results follow.
Each compound was assayed on Plasmodium falciparum (assay: Primary screen in NF54 nanoGlo assay, in single point, at 2uM, 72h; a lower Z score goes with more inhibition). Details: timepoint 72 hour.
Format: functional, Erythrocyte

| Structure (SMILES) | % Inhibition [%] | Z score |
| --- | --- | --- |
| CCN(CCN1CCOCC1)S(=O)(=O)c1ccc2oc(=O)[nH]c2c1 | -5 | 0.68 |
| Cc1cnccc1CCN[C@@H](C)Cc1ccc(O)cc1 | -1 | 0.08 |
| O=C(c1cccnn1)N1C[C@H](c2ccc3c(c2)OCO3)[C@@H]2[C@H]1C1CCN2CC1 | -11 | 1.42 |
| COCCOCCC(=O)N[C@@H](C)Cc1cccc(Cl)c1 | -15 | 2.19 |
| CCCCS(CCCC)=C1C(=O)NC(=O)N(Cc2ccc(F)cc2)C1=O | -2 | 0.21 |
| COc1ccc(-c2c(C#N)c(N)nc3c2N2CCC3CC2)c(OC)c1C | 9 | -1.29 |
| Cc1ccc(-c2cn(CC(=O)Nc3cccc(C)c3C)c(=O)o2)cc1 | -16 | 1.64 |
| Cc1cccnc1C(=O)N1C[C@H](c2cc(F)cc(F)c2)[C@@H]2[C@H]1C1CCN2CC1 | 16 | -1.53 |
| COc1ccc2c(c1)C[C@]1(CN2C)C(=O)N(c2ccc(C)cc2)C(=O)N=C1O | 9 | -1.15 |
| Cc1cc(C)cc(C[C@H](C)NC(=O)CN2CCOC2=O)c1 | -20 | 2.81 |
| COc1cccc(CC(=O)N2CCCCC[C@@H]2CN2CCCC2)c1 | -1 | 0.16 |
| CN1CCN2CCN(C(=O)c3ccncc3F)C[C@H]2C1=O | -15 | 2.98 |
| Cc1ccc(CN(Cc2ccncc2)C(=O)[C@H](C)N2CCCC2=O)s1 | 0 | -0.01 |
| O=C(COc1ccc(Br)cc1F)N1CCC2(CC1)OCCO2 | -11 | 1.17 |
| CC(C)c1nc(CN2C[C@@H]3NCCO[C@H]3C2)co1 | -9 | 1.09 |
| CCn1nc(C)c(CN2CCC[C@H](C(=O)c3ccccn3)C2)c1C | 1 | -0.19 |
| CCN1CCN(c2nc3ccccc3c(=O)[nH]2)CC1 | 0 | -0.01 |
| C=CCNC(=O)Cn1c(-c2ncccn2)noc1=O | 6 | -0.88 |
| C[C@@H](Cc1ccc(Cl)cc1Cl)NC(=O)NCCCCn1cnnc1 | 3 | -0.5 |
| Cc1ccc(N2C(=O)NC(=O)C3(Cc4ccccc4N4CCCC43)C2=O)cc1 (stereo not given) | 8 | -1.04 |
| Cc1ccc(-c2nnc(N3CCC(C(=O)N4CCC5(CC4)OCCO5)CC3)o2)cc1 | -9 | 1.39 |
| CCOc1cccc2c1cc(C(=O)NCc1ccc(F)cc1)n2Cc1ccc(C(C)(C)C)cc1 | -13 | 1.47 |

| Structure (SMILES) | % Inhibition [%] | Z score |
| --- | --- | --- |
| CN(C)CCN1CCN(C(=O)Cc2ccn(-c3ccccc3)n2)CC1 | 8 | -1.04 |
| Cc1ccc(C2(CNC(=O)Cc3ccc(S(=O)(=O)F)cc3)CCC2)cc1C | 6 | -1.05 |
| COc1ccc(OC)c(CC2(CN3CCc4cc(OC)c(OC)cc4[C@@H]3C)C(=O)N(C)C(=O)N(C)C2=O)c1 | -12 | 1.49 |
| O=C(Cc1ccc(Cl)c(Cl)c1)N1CCN(CCc2cnccn2)CC1 | -26 | 3.42 |
| OCCN1CCN(Cc2cccc3c2OCO3)CC1 | -5 | 0.49 |
| O=C(c1cc2n(n1)CCN(Cc1ccc(Cl)cc1)C2=O)N1CCC2(CC1)OCCO2 | 1 | -0.21 |
| Cc1ccc(CC(C)NC(=O)NC2CCC(=O)N(C)C2)c(C)c1 (stereo not given) | -5 | 0.56 |
| CCc1ccc(S(=O)(=O)N(C(=O)Oc2ccccc2)c2ccc(OC(=O)Oc3ccccc3)cc2)cc1 | -11 | 1.88 |
| Cc1nnc(CN2C[C@@H]3CC[C@H]2CN(Cc2ccccn2)C3)o1 | 0 | -0.04 |
| COc1ccc(-c2ccccc2N2CCNCC2)c2ccc(C)nc12 | 29 | -0.96 |
| O=C1CCCN1CC(=O)N(Cc1ccsc1)c1cccnc1 | -11 | 1.15 |
| Nc1ncnc(NCCc2cnc(C3CC3)nc2)c1Cl | -3 | 0.38 |
| CCOc1cccc2c1cc(C(=O)NCc1ccc(F)cc1)n2CCOC | -13 | 1.44 |
| O=C(O)CCN1C[C@H](c2ccccc2)[C@@H]2[C@H]1C1CCN2CC1 | 1 | -0.1 |
| NC(=O)CN[C@@H](Cc1ccccn1)c1ccc(Br)cc1 | 10 | -1.25 |
| CCN1CCCN(C(=O)COc2ccc(F)cc2)CC12CCOCC2 | -13 | 1.7 |
| FC1(F)CCN(CCc2ccncc2)C1 | -3 | 0.48 |
| COc1ccc(CCNC2CCCCCCC2)cc1 | -3 | 0.59 |
| CC(=O)N1c2ccc(C)cc2[C@H]2CN(C)CCCC21 (stereo not given in full) | -2 | 0.3 |
| O=C(NC1CC1)[C@H]1CN2CC[C@H]1C[C@@H]2Cn1cc(-c2cccc(O)c2)nn1 | 34 | -3.87 |
| CCNC(=O)CNC(=O)N[C@@H](C)Cc1ccccc1Br | -8 | 0.77 |
| O=c1[nH]c2ccccc2cc1CN1C[C@@H]2CS(=O)(=O)C[C@@H]2C1 | -9 | 0.89 |

| Structure (SMILES) | % Inhibition [%] | Z score |
| --- | --- | --- |
| O=C(Oc1c(Br)cc(Br)c2ccccc12)N1CCOCC1 | -5 | 0.67 |
| Cc1ncccc1CN1CC2(CCOCC2)CC[C@@H]1CO | -4 | 0.48 |
| CC1=CCCN(C(=O)NCc2cn(C(C)C)c(=O)[nH]c2=O)C1 | 0 | -0.09 |
| O=C(NC1CC1c1ccccc1)N1C2CCC1C(CO)C2 (stereo not given) | 0 | 0.06 |
| COc1ccc(-n2nnnc2C2(N3CCCCC3)CCCCC2)cc1OC | -6 | 0.89 |
| CN(Cc1ccccc1)C(=O)CCN1C[C@H](C(=O)O)[C@@H](c2ccc(F)cc2)C1 | -5 | 0.63 |
| c1ccc2c(N3CCNCC3)nsc2c1 [BENZISOTHIAZOLE-3-YL-PIPERAZINE] | 1 | -0.08 |
| COC(=O)[C@@H](Cc1ccccc1)NC(=O)CN1CCCC1=O | -4 | 0.33 |
| CN1CC[C@@H]2CN(C(=O)Cc3ccccn3)C[C@@H]21 | -18 | 2.11 |
| CCN1CCC2C(C1)OCCN2C(=O)c1cccnc1 (stereo not given) | -7 | 1.19 |
| CC(C)(C)c1ncc2c(n1)CC1CCC2N1C(=O)N[C@H]1COC[C@H]1n1ccnn1 (stereo not given in full) | -3 | 0.34 |
| Fc1cnc(N2C[C@@H]3C[C@H]2CN3Cc2ccccc2)nc1 | 6 | -0.72 |
| N[C@@H](Cn1cccn1)c1ccc(Cl)cc1 | -13 | 1.75 |
| O=C(c1sc2cc(F)ccc2c1Cl)N1CCC2(CC1)OCCO2 | -7 | 1.17 |
| Cc1nnc2ccc(N3CC[C@@]4(CCCN(C)C4)C3)nn12 | -10 | 2.02 |
| CN1CCC2OCCN(c3ccc(C(F)(F)F)cn3)C2C1 (stereo not given) | -43 | 5.02 |
| Cc1cc(N2C3CCC2c2ccccc23)nc(C)n1 | -20 | 2.53 |
| COc1cc2c(cc1OC)CN([C@H]1CCCN(C(=O)Cc3ccc4c(c3)OCO4)C1)CC2 | -2 | 0.33 |
| Cc1c(C(=O)N2CCC3(CC2)OCCO3)oc2ccccc12 | -14 | 1.99 |
| COc1ccccc1[C@@H]1CN(C(=O)c2[nH]cnc2C)[C@@H]2C3CCN(CC3)[C@@H]21 | 0 | 0.1 |
| CN1[C@@H]2CC[C@H]1c1c(nc(N)c(C#N)c1-c1cccc(OCC(N)=O)c1)C2 | -9 | 1.87 |
| CN(C(=O)CN1CCCC1=O)c1ccccc1 | -28 | 3.25 |

| Structure (SMILES) | % Inhibition [%] | Z score |
| --- | --- | --- |
| CCC#CCN1C[C@H]2c3ccc(OC)cc3OC[C@@]2(C(=O)O)C1 | -2 | 0.38 |
| CCn1ccc(C(=O)N2C[C@@H](c3cccc(F)c3F)[C@@H]3[C@H]2C2CCN3CC2)n1 | -2 | 0.35 |
| COc1ccc(CC(=O)N2CCC3(CC2)c2nccn2-c2ccccc2CN3C)cc1 | 6 | -0.8 |
| CC[C@H]1CCCCN1C(=O)CN1CCCC1=O | -4 | 0.53 |
| CN1C2CCC1CN(c1ncnc3c(F)cccc13)CC2 (stereo not given) | 9 | -1.33 |
| Cc1ccc(Cl)cc1S(=O)(=O)N1Cc2cccnc2C1 | -15 | 2.77 |
| CNS(=O)(=O)N1CCC[C@H]1c1cccnc1 | -8 | 1 |
| C[C@@H](Cc1nc2ccccc2s1)NCCc1ccsc1 | 0 | 0.03 |
| O=C(c1cccs1)N1CC(C(=O)N2CCC3(CC2)OCCO3)C1 | -5 | 0.82 |
| CC(C)[C@@H]1N(CC2CC2)CC12CCOCC2 | 12 | -1.35 |
| CN1C[C@@H]2CN(c3ncnc4ccc(F)cc34)C[C@@H]2C1 | -8 | 0.66 |
| CC(C)Cc1csc(C2CN3CCCC3CO2)n1 (stereo not given) | 7 | -0.97 |
| CC(C)N(C)C(=O)Cc1ccc(S(=O)(=O)F)cc1 | -2 | 0.23 |
| CCN(C1CCN(C)CC1)C1CN(C(=O)COc2ccc(F)cc2)C1 | -17 | 2.24 |
| C[C@H]1CC[C@H](C(=O)N2C[C@H]3c4ccccc4OC[C@@]3(C(=O)O)C2)CC1 | -12 | 1.6 |
| Cc1cc(F)cc(-c2c(C#N)c(N)nc3c2[C@@H]2CC[C@H](C3)N2C)c1 | 3 | -0.45 |
| Cc1csc2c(N3CC4CCCN4CC3C)ncnc12 (stereo not given) | 2 | -0.34 |
| Cc1cc(Br)cn2c(CN3CCNCC3)cnc12 | 2 | -0.29 |
| Cc1ocnc1C(=O)N1C[C@H](c2cc(F)cc(F)c2)[C@@H]2[C@H]1C1CCN2CC1 | -3 | 0.41 |

Source: ChEMBL document CHEMBL4888484, “Replenishing the malaria drug discovery pipeline: Screening and hit evaluation of the MMV Hit Generation Library 1 (HGL1) against asexual blood stage Plasmodium falciparum ,using a nano luciferase reporter read-out” (2022)
